Hit rate of the full screen: of about 360,000 compounds, about 25,000 (6.9%) were called active. The shares of active, inactive and inconclusive entries below differ from those in the screen. The call rests on the fitted dose curve; in most records, active means well fitted inhibition curve with a large enough effect; inconclusive means small, poorly fitted or top-dose-only effect; inactive means flat fitted curve, though single readings scatter. Potencies beside an inconclusive call are fits to weak or partial responses and may not hold up.
These compounds were tested against Luciferin 4-monooxygenase (Photinus pyralis) (UniProt P08659) (assay: qHTS profiling assay for firefly luciferase inhibitor/activator using purifed enzyme and Km concentrations of substrates (counterscreen for miR-21 project)). Conditions: purified FLuc, luminescence inhibition; series mostly up to 57.5 µM; activity change, negative = inhibition: at the top concentration.
Chain of UniProt P08659 (P08659 whole entry, looked up): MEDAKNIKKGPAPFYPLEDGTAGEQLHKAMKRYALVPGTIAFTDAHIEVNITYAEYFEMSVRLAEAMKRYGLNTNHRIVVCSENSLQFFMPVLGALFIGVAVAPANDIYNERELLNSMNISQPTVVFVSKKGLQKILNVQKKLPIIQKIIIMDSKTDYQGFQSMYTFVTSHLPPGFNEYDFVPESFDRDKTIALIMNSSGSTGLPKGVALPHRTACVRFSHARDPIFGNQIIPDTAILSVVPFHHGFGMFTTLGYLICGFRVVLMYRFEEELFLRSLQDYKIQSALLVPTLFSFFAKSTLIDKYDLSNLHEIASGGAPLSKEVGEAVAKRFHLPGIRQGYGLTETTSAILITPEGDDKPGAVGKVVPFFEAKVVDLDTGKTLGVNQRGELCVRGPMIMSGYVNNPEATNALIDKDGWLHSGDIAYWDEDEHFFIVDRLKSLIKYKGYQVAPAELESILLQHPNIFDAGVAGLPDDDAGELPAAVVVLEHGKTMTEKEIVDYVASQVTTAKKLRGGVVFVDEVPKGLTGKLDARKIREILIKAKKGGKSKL
Method in brief: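 Purified P. pyralis luciferase (10nM final) with 10uM D-luciferin and 10uM ATP (Km levels) in 50mM Tris acetate pH 7.5, 10mM Mg acetate, 0.01% Tween-20, 0.05% BSA; qHTS 6-point titration, ~60 µM downward; luminescence read.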
For `O=C1CCC(=O)N1OCCOc1ccc(Cl)c2ccccc12`, the Potency was inconclusive: 37.9 µM [inhibitor, partial curve, poor fit]. `COc1c(C)cccc1C(=O)Nc1ccc(Cl)c(-c2nc3cc(C)ccc3o2)c1` was tested, and the Potency was inconclusive: 30.1 µM [inhibitor, partial curve, poor fit]. `C=CCNC(=O)C1CC(=O)N(c2ccc(OCC(=O)Nc3ccccc3)cc2)C1` (stereo not drawn) was tested, and the Potency was active: 12 µM. For `C=CCn1c(SCC(C)=O)nc2scc(-c3ccc(C)o3)c2c1=O`, the Potency was inconclusive: 7.57 µM [inhibitor, partial curve]. With `COc1cccc(NC(=O)c2ccccc2Br)c1` the Potency was active: 15.1 µM. For `CCOc1ccc(CCNC(=O)CSc2nc3ccccc3nc2Cc2ccc(C)cc2)cc1OCC`, the “activity change, negative = inhibition” value was inactive: -1.62%. In the case of `COc1cccc(-c2noc(C(C)n3nc(C)c([N+](=O)[O-])c3C)n2)c1` (stereo not drawn), the Potency is reported as inconclusive: 37.9 µM [inhibitor, single point]. With `Cc1cc(C)nc(N/N=C/c2cc(Br)ccc2O)n1` the Potency was active: 8.49 µM. `O=C(c1ccc2c(c1)OCCCO2)c1cccs1` was tested, and the Potency was active: 6.75 µM. `Cc1nc(SCC(=O)N2CC(=O)Nc3ccccc32)nc(C)c1C` was tested, and the “activity change, negative = inhibition” value was inactive: -4.27%. For `COc1ccc(NC(=O)CN2CCN(c3nc(-c4cccc(OC)c4)cs3)CC2)cc1`, the Potency was inconclusive: 15.1 µM [inhibitor, partial curve, poor fit]. For `CCOc1ccccc1C(=O)NCC(=O)OCc1csc(CC(=O)Nc2ccc(C)cc2)n1`, the Potency was inconclusive: 26.9 µM [inhibitor, single point]. `O=C(OCC(=O)N1CCC(Cc2ccccc2)CC1)c1ccccc1F` was tested, and the Potency was active: 4.26 µM. `S=C(NCCc1cccc(Cl)c1)NC1CCCCC1` was tested, and the Potency was active: 19 µM. With `Cc1ccc(C(=O)N/C(=C/c2ccco2)C(=O)Nc2cccc(C)c2)cc1` the Potency was inconclusive: 26.9 µM [inhibitor, partial curve, poor fit]. For `COc1cc(OC)cc(C(=O)Nc2cccc(-c3ccc(N4CCOCC4)nn3)c2)c1`, the Potency was active: 1.51 µM. In the case of `COc1cc(/C=C2\CCCc3c2nc2ccccc2c3C(=O)O)cc(OC)c1O`, the Potency is reported as inconclusive: 21.3 µM [inhibitor, partial curve]. In the case of `Cc1ccc2nc(N(Cc3cccnc3)C(=O)c3ccco3)sc2c1`, the Potency is reported as inconclusive: 9.53 µM [inhibitor, partial curve]. In the case of `S=c1[nH]nc(NCCc2ccccc2)s1`, the Potency is reported as inconclusive: 21.3 µM [inhibitor, partial curve, poor fit]. For `COc1cnc(-c2ccccn2)nc1Oc1ccc(F)cc1F`, the Potency was inconclusive: 37.9 µM [inhibitor, partial curve, poor fit]. In the case of `CCn1c(C(=O)NCc2ccc(C)cc2)cc2sc(Cl)cc21`, the “activity change, negative = inhibition” value is reported as inactive: -19%. For `O=C(N/N=C/c1ccc2c(c1)OCO2)/C(=C/c1ccc2c(c1)OCO2)NC(=O)c1ccccc1`, the Potency was inconclusive: 8.49 µM [inhibitor, partial curve]. For `COc1ccc(-c2nc3ccccc3s2)cc1NC(=O)c1ccc(C#N)cc1F`, the “activity change, negative = inhibition” value was inactive: -1.99%. In the case of `Cc1ccc2nc(NCc3ccccc3)[nH]c2c1`, the Potency is reported as active: 9.53 µM. With `Cc1cc(C(=O)OCC(=O)Nc2nccs2)c2ccccc2n1` the “activity change, negative = inhibition” value was inactive: 1.32%. With `O=C(OCc1ccccn1)c1ccc(COc2ccc3ccccc3c2)o1` the Potency was inconclusive: 26.9 µM [inhibitor, partial curve]. For `Cc1noc(C)c1S(=O)(=O)Nc1ccc(C(=O)Nc2ccc(C(C)C)cc2)cc1`, the Potency was inconclusive: 12 µM [inhibitor, partial curve]. For `CCC1Cc2c(nc(N)c3c(N)nc(N4CCCCC4)c(C#N)c23)O1` (stereo not drawn), the Potency was inconclusive: 26.9 µM [inhibitor, partial curve]. In the case of `CCOC(=O)c1ccc(NC(=O)CC2Nc3cccc4cccc(c34)NC2=O)cc1` (stereo not drawn), the Potency is reported as inconclusive: 26.9 µM [inhibitor, partial curve, poor fit]. For `CCOc1ccccc1NC(=O)c1csc(C)c1C`, the Potency was inconclusive: 26.9 µM [inhibitor, single point]. With `O=C(O)COn1c(-c2ccccc2)nc2ccc([N+](=O)[O-])cc21` the Potency was active: 15.1 µM. In the case of `Cc1cccc(NC(=O)c2cnn(-c3ccccc3)c2C)c1C`, the Potency is reported as inconclusive: 13.5 µM [inhibitor, partial curve, poor fit]. For `O=C(c1cc(-c2ccc(Cl)cc2)nc2ccccc12)N1CCC1`, the Potency was inconclusive: 23.9 µM [inhibitor, single point]. For `O=C(O)c1ccccc1C(=O)Nc1n[nH]c(=S)s1`, the Potency was inconclusive: 21.3 µM [inhibitor, single point]. In the case of `CC(=O)c1ccc(N=Nc2ccc(N)cc2)cc1`, the Potency is reported as active: 1.51 µM. In the case of `O=C(NCc1ccccc1F)c1ccc2ccccc2n1`, the “activity change, negative = inhibition” value is reported as inactive: -14.9%. In the case of `O=c1c2cc(Br)ccc2nc(-c2ccccc2)n1O`, the Potency is reported as inconclusive: 23.9 µM [inhibitor, single point]. In the case of `Cc1cc(C(=O)O)ccc1-n1c(C)cc(/C=C(/C#N)C(=O)Nc2ccccc2)c1C`, the Potency is reported as inconclusive: 21.3 µM [inhibitor, partial curve, poor fit]. In the case of `S=C(NC1CCCCC1)N1CCc2ccccc2C1`, the Potency is reported as inconclusive: 30.1 µM [inhibitor, single point]. `O=C(NC1CCCCCCC1)c1ccc(F)cc1` was tested, and the Potency was active: 12 µM. With `COc1ccc(OC)c(/C=C2\SC(N3CCCC(C)C3)=NC2=O)c1` (stereo not drawn) the Potency was inconclusive: 21.3 µM [inhibitor, partial curve]. With `O=[N+]([O-])c1ccc(COc2cccc3cccnc23)cc1` the Potency was inconclusive: 21.3 µM [inhibitor, single point]. For `O=c1cc(N2CCc3ccccc32)[nH]c(=O)n1-c1ccc(Cl)cc1`, the Potency was inconclusive: 21.3 µM [inhibitor, partial curve, poor fit]. In the case of `COc1ccc(NS(=O)(=O)c2cc(N/C(=N\S(=O)(=O)c3ccccc3)c3ccc(F)cc3)ccc2Cl)cc1`, the “activity change, negative = inhibition” value is reported as inactive: -0.194%. With `Cc1cc(Cl)ccc1OCC(=O)Nc1nc(-c2cccnc2)cs1` the “activity change, negative = inhibition” value was inactive: -2.34%. `Cc1ccc(NC(=O)c2cc(S(=O)(=O)N3CCC(C)CC3)cn2C)cc1Cl` was tested, and the “activity change, negative = inhibition” value was inactive: -1.57%. For `CC(C)(C)NS(=O)(=O)c1ccc(NS(C)(=O)=O)cc1`, the “activity change, negative = inhibition” value was inactive: 3.88%. With `COc1ccccc1-c1ccc(Nc2cccc(C(C)=O)c2)nn1` the Potency was inconclusive: 3.38 µM [inhibitor, full curve]. `CCCCc1cc(O)c(CCCC)c(O)c1` was tested, and the Potency was inconclusive: 26.9 µM [inhibitor, partial curve, poor fit]. With `COc1ccccc1C(=O)Nc1ccc2nc(SCC(=O)N3CCCC3)sc2c1` the Potency was inconclusive: 12 µM [inhibitor, partial curve, poor fit]. For `O=C(NCC(=O)N1CCCCC1)c1ccc(Cl)cc1Cl`, the Potency was active: 19 µM. With `O=C(Nc1ccccc1F)Nc1ccccc1F` the Potency was active: 15.1 µM. `COc1cc(/C=N/NC(=O)c2cccc(N3CCCC3=O)c2)ccc1O` was tested, and the Potency was inconclusive: 37.9 µM [inhibitor, single point]. In the case of `COc1ccc(-n2c(C)c(C)c3c(NCCO)ncnc32)cc1`, the Potency is reported as inconclusive: 30.1 µM [inhibitor, partial curve, poor fit]. For `CCOCCCNC1=C(Cl)C(=O)c2ccccc2C1=O`, the Potency was inconclusive: 26.9 µM [inhibitor, partial curve]. In the case of `CC(=O)c1cnc2c(-c3ccccc3)cnn2c1C`, the Potency is reported as inconclusive: 19 µM [inhibitor, partial curve]. In the case of `O=C(O)CCCNC(=O)OCc1ccccc1`, the Potency is reported as inconclusive: 30.1 µM [inhibitor, partial curve, poor fit]. In the case of `CC(=O)c1ccc(NC(=O)Nc2cccnc2)cc1`, the Potency is reported as inconclusive: 23.9 µM [inhibitor, partial curve]. With `O=C(c1ccc2[nH]ccc2c1)N1CCCC(Nc2ccccc2)C1` (stereo not drawn) the “activity change, negative = inhibition” value was inactive: -3.88%. For `COc1ccc(OC)c(CNC(=O)c2cc(S(=O)(=O)N3CCC(C)CC3)cn2C)c1`, the “activity change, negative = inhibition” value was inactive: -6.04%. For `COc1cc(OC)cc(C(=O)N2CCN(C(=O)c3ccc(-c4ccccc4)cc3)CC2)c1`, the Potency was inconclusive: 30.1 µM [inhibitor, partial curve, poor fit]. In the case of `c1ccc2[nH]c(SCc3cn4cccnc4n3)nc2c1`, the Potency is reported as inconclusive: 30.1 µM [inhibitor, single point]. In the case of `Cc1ccc(NC(=O)c2cc(-c3cccs3)nc3ccccc23)nc1`, the Potency is reported as inconclusive: 37.9 µM [inhibitor, partial curve, poor fit]. In the case of `CCc1nc2oc3ccccc3c(=O)c2c(=O)n1-c1ccc(C)cc1`, the Potency is reported as active: 16.9 µM. For `Oc1ccccc1/C=N/NC(=S)NC1CC2C=CC1C2` (stereo not drawn), the Potency was active: 13.5 µM. `CC(C)(C)C(=O)CSc1nc2ncc(Br)cc2[nH]1` was tested, and the Potency was active: 19 µM. In the case of `O=C(COc1ccc(Cl)cc1)Nc1ccccc1CO`, the Potency is reported as inconclusive: 26.9 µM [inhibitor, single point]. For `COc1ccc(CCN(Cc2cccs2)S(=O)(=O)c2ccc(S(=O)(=O)N(C)C3CCCCC3)cc2)cc1OC`, the “activity change, negative = inhibition” value was inactive: 0.0696%. In the case of `COc1ccccc1-c1noc(-c2cccnc2)n1`, the Potency is reported as inconclusive: 37.9 µM [inhibitor, single point]. With `O=C(N/N=C/c1cccc(Br)c1)c1ccc(Br)cc1` the Potency was inconclusive: 1.69 µM [inhibitor, full curve]. In the case of `CCC(C)/C=C/C1=CC2=C(Cl)C(=O)C3(C)OC(=O)C(C(=O)C(C)C(C)O)C3C2=CO1` (stereo not drawn), the Potency is reported as inconclusive: 26.9 µM [inhibitor, partial curve, poor fit]. For `COc1cc(C(=S)N2CCOCC2)cc(OC)c1OC(=O)c1cccc(C)c1`, the “activity change, negative = inhibition” value was inactive: 10.3%. With `COc1ccc(CNC(=O)C2CCN(S(=O)(=O)c3ccc4nc5c(c(C(=O)O)c4c3)CCCC5)CC2)cc1` the Potency was inconclusive: 30.1 µM [inhibitor, partial curve, poor fit].
Further: nearly all actives have a fitted effect of over 55% in size.
Potency means the concentration at half of the fitted maximal effect; tags describe the fitted curve by direction and shape.
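Wherever activity change, negative = inhibition is given: plate controls were vehicle for no effect and reference inhibitor for full effect.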
